# Assay results taken from the supplement of paper PMC10369915.
# This is one part of the list. No stated cut-off is given here; in the data, active = 3.2 or more and inactive = the rest. The signal is at background level for most entries.
# Tests used:
# Assay in all cases: enrichment score (SH2-bound / input frequency) (ratio); bacterial display of known human phosphotyrosine sites (pTyr-Var adds point mutants) read by sequencing; higher = stronger binding; tyrosines were phosphorylated by kinases first
# Conditions in all cases: peptide library: Human pTyr
# [1] = biological target: SHP2 C-SH2 domain E139D
# [2] = biological target: SHP2 C-SH2 domain wild-type
# [3] = biological target: SHP2 N-SH2 domain L43F
# [4] = biological target: SHP2 N-SH2 domain T42A
# [5] = biological target: SHP2 N-SH2 domain T52S
# [6] = biological target: SHP2 N-SH2 domain wild-type
# 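Further: displayed peptides selected on beads carrying the immobilized SH2 domain, with library peptides lacking any tyrosine serving as negative controls.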
Binder,enrichment score [1],enrichment score [2],enrichment score [3],enrichment score [4],enrichment score [5],enrichment score [6]
WPSPAKDYEVKKEGS [RAI3_HUMAN_350_YA],inactive: 0.793,inactive: 0.992,inactive: 0.967,inactive: 0.884,inactive: 0.602,inactive: 0.759
GGSHISGYATLRRGP [RAPH1_HUMAN_1226],inactive: 1.16,inactive: 1.58,inactive: 0.746,inactive: 0.801,inactive: 0.654,inactive: 0.603
WEKARPEYMLPVHFA [PYGB_HUMAN_197_YA],inactive: 0.983,inactive: 0.705,inactive: 0.796,inactive: 0.754,inactive: 0.895,inactive: 0.726
AVQTEEQYRFLYHTV [PTPN18_HUMAN_281],inactive: 0.897,inactive: 0.928,inactive: 0.751,inactive: 0.878,inactive: 0.899,inactive: 0.787
KIQNTGDYYDLYGGE [PTN11_HUMAN_62],inactive: 0.718,inactive: 0.706,inactive: 0.726,inactive: 0.737,inactive: 0.69,inactive: 0.77
MVSTFEQYQFLYDVI [PTPRC_HUMAN_1216],inactive: 1.96,inactive: 2.36,inactive: 2.2,inactive: 2.26,inactive: 2.52,active: 3.55
VLPVGVLYKVKVYET [PTPS_HUMAN_128],inactive: 1.25,inactive: 1.38,inactive: 1.2,inactive: 1.24,inactive: 1.38,inactive: 1.66
GQRDSSYYWEIEASE [RAF1_HUMAN_341],inactive: 0.763,inactive: 0.959,inactive: 1.03,inactive: 1.1,inactive: 0.97,inactive: 0.905
EETGDTLYAPYSTHF [RAI3_HUMAN_317],inactive: 0.785,inactive: 0.595,inactive: 0.674,inactive: 0.643,inactive: 0.774,inactive: 0.733
NTTAMTIYENLAPVT [PTPRJ_HUMAN_1320],inactive: 0.839,inactive: 0.764,inactive: 0.666,inactive: 0.673,inactive: 0.613,inactive: 0.896
FMLPVHFYGKVEHTN [PYGL_HUMAN_204],inactive: 2.93,active: 4.04,inactive: 3.04,inactive: 2.57,inactive: 2.65,active: 3.47
FNQNKNRYVDILPAD [PTPRC_HUMAN_681_YA],active: 3.33,active: 9.51,inactive: 1.13,inactive: 1.64,inactive: 1.05,inactive: 1.15
KTIFKDFYELEPHKF [PYGM_HUMAN_473],inactive: 1.32,inactive: 1.1,inactive: 1.47,inactive: 0.832,inactive: 1.3,inactive: 1.08
AIDAFSDYANFKGGG [PTPRA_HUMAN_798_YA],inactive: 0.581,inactive: 0.743,inactive: 0.573,inactive: 0.639,inactive: 0.624,inactive: 0.765
GDTLYAPYSTHFQLQ [RAI3_HUMAN_320],inactive: 0.818,inactive: 0.752,inactive: 0.583,inactive: 0.747,inactive: 0.759,inactive: 0.808
FIDIFSDYANFKGGG [PTPRE_HUMAN_696],inactive: 0.951,inactive: 1.1,inactive: 1.1,inactive: 0.94,inactive: 1.08,inactive: 0.993
MQRAAGPYSVTNCGE [PTN6_HUMAN_377_YA],inactive: 0.864,inactive: 0.708,inactive: 0.661,inactive: 0.626,inactive: 0.718,inactive: 0.833
VLPVGVLYKVKVAET [PTPS_HUMAN_128_YA],inactive: 1.12,inactive: 0.809,inactive: 0.989,inactive: 0.827,inactive: 0.83,inactive: 0.918
